B1: chr11:99246770:99246771:-_ENSMUSG00000019761_ENSMUST00000103131|mus_hu|motif|central (ssRNA)
RNA: GGGAGUUCUACAGUCCGACGAUCAAAAGAAGAAAUACAGAAACCACAAAACACCUUGUAGACACCUUAUUUUCAAGGUCGGUUUCCAUAGACCAUCAAGACAGAAGUGUUUUCUUGGAGACUUUGUUUUCCAUGCAUCUGUAACAACAGAGGAUUGAGCAUCA
B2: chr7:151048522:151048523:+_ENSG00000013374_ENST00000566856|hu_mus|hu_hu_hu_mus_True|38_78 (ssRNA)
RNA: GGGAGUUCUACAGUCCGACGAUCCUGUUUCUUAUUUAUUACGAUCUUGAUGUAAUUUUCUUGAAGUCCGAAAGUUUCAGCUAUUUGACACCUCAGGUCUCUGCCAGUGACAUGCAAGCGGGUCUCCAACAAGCUUUUCUUAUCCAACAGAGGAUUGAGCAUCA
B3: chr2:48026839:48026840:+_ENSG00000116062_ENST00000540021|hu_hu|hu_hu_hu_mus_False|28_108 (ssRNA)
RNA: GGGAGUUCUACAGUCCGACGAUCAUAGUGUGCCACUAGCGUCCUAAAUCUGGAACAGUGGCGGUCAUCCGAAAACUGGCCGAUGAAAAACUUGCCCAGUGAAGUGUCAACAAAGCAAACACCAUACACACGAGUGUGACCAGACAACAGAGGAUUGAGCAUCA
B4: 60154132_60154765_630_CDS_ENSG00000108064_ENST00000373895|human|control|control (ssRNA)
RNA: GGGAGUUCUACAGUCCGACGAUCUUCAAUCAUUUGUUCUUCCCAAGACUUCAUUUCAUUAUGAUAACGAGUUUCGUCCUCUUUAGCAUGCUGAAUAUAUAAUUCCUUUUCAGAGUCAGACAGAUUUUUCCAGUUUUCCUUUACCAACAGAGGAUUGAGCAUCA
B5: chr11:102151369:102151370:-_ENSMUSG00000059995_ENSMUST00000137387|mus_hu|FALSE|FALSE (ssRNA)
RNA: GGGAGUUCUACAGUCCGACGAUCCGGCUAGAGGCCUGCUGAGAUCCUCCUCUCCCUCUGGCCUCCUCUCGGAGGGAGACUACGGAGGGCCAAGAAUAGAGAAGCCCAGGCCCCGGGAUUUAUUCUAACUCCUGCCAAAAUCUGCAACAGAGGAUUGAGCAUCA
B6: chr3:25648697:25648698:-_ENSG00000077097_ENST00000264331|hu_hu|FALSE|FALSE (ssRNA)
RNA: GGGAGUUCUACAGUCCGACGAUCUUUGUCAUGCAAAGAUUUUUCUGGAGUGGCUUUUGAUUUGCCUGGUGAAAAUGUAUAUUCAUCUUUAUCUAACCCAUCUGAAGGAACAAAUUCAUCUUCCCCAUCAUUUGUUAUGGGAGACAACAGAGGAUUGAGCAUCA
B7: 5657272_5661565_1924_CDS_ENSG00000160633_ENST00000592224|human|control|control (ssRNA)
RNA: GGGAGUUCUACAGUCCGACGAUCCAUGCGUUGUUCGCGUUCACUGCGUUCACGCACCCUAUGGGACUCUGAGUCUCUUGACUUCCGAGGCUCCUUGACCUUAUCAAAGGACACGACGGACCGCUUCUCUCUGCUGGCUGAUUUCAACAGAGGAUUGAGCAUCA
B8: chr4:76721835:76721836:+_ENSG00000138768_ENST00000264904|hu_mus|hu_hu_hu_mus_True|8_48 (ssRNA)
RNA: GGGAGUUCUACAGUCCGACGAUCGUUUGGCUGGGGUUUCUGAGACGCUCUGGAAUAUAACUCAUGUUUGCUAAUAAAUCCUAGUUUUCUAUGAAAUUUCUCUUUGCCAAUCCUCUUCUCUAUUAGUGUUUUAGCUUUCUCUUUCAACAGAGGAUUGAGCAUCA
B9: chr12:110929859:110929860:-_ENSG00000111237_ENST00000549970|hu_mus|FALSE|FALSE (ssRNA)
RNA: GGGAGUUCUACAGUCCGACGAUCCUGGCUUUACGACUUUUUAUACUCAAUUCGUUCUACUUUGACGUCAUCUCCAAUUAGUUGAUAGACGUAAGUGACCACAGUAGAAGCCUGGAUGUCCAUCAGCACAAACGAUGGAAUAAUCAACAGAGGAUUGAGCAUCA
B10: chr5:33459820:33459821:+_ENSG00000113407_ENST00000502553|hu_hu|FALSE|FALSE (ssRNA)
RNA: GGGAGUUCUACAGUCCGACGAUCCCAGAGUCGGCUGUUGAAGAUGUUUGGGGUGACUACCUCCUGGAAUCCUCUUUUCCUAUAUUCGCUCCUAAUGAAUUCAAUAAGUGCAUUAUAAAUGUAGGCUCCUUUUGGCAGAAAAAACAACAGAGGAUUGAGCAUCA
B11: chr2:37458628:37458629:-_ENSMUSG00000026915_ENSMUST00000072186|mus_hu|motif|central (ssRNA)
RNA: GGGAGUUCUACAGUCCGACGAUCCUUAUACUGAAGCCCAGGCCUGAUCUGAUUUAGCCUCAUUAGUGCAUUCAUAAGGUCGGUUGCUUUACUAUCCAGAAUUUUCCUUAAGUUUCGUUUCAUCUUCUUGUUGGGGUCUUUAUCCAACAGAGGAUUGAGCAUCA
B12: chr6:36759976:36759977:-_ENSMUSG00000029838_ENSMUST00000101534|mus_hu|FALSE|FALSE (ssRNA)
RNA: GGGAGUUCUACAGUCCGACGAUCUCAGUCUGCCUUUGUUGCAAGGGGCGAGGUUGCUACCGCUGAGUCCAGGUACCCGGCUCGCUGCAGCUCCUGCUUGGGCCGCUGCUGCUCUCCCCGCCUUCUGGACGGAUGACUCACUGGCAACAGAGGAUUGAGCAUCA
B13: chr1:120444466:120444467:+_ENSMUSG00000064302_ENSMUST00000049404|mus_mus|FALSE|FALSE (ssRNA)
RNA: GGGAGUUCUACAGUCCGACGAUCAAGGACGAAGAGCCAGUCUUGCAAGUCAUCCUUAUGAAUGAUUAUAAAAUCCACGAGGGUCUCCAAAAACAUACUGAAAACUCUCUUGCUGUGAGGGUCGGCAAACAUUCGGGUGAAAAUCAACAGAGGAUUGAGCAUCA
B14: 78798051_78798171_2646_CDS_ENSMUSG00000033088_ENSMUST00000109689|mouse|control|control (ssRNA)
RNA: GGGAGUUCUACAGUCCGACGAUCAGGUGGGGAAGAGGCGCGAGGUGCGUCCCGGUGCCCGAUGCACACAGUGCAGGGUGGCUGAGAGGACUCCAAAGAGGUCUGGGGAGCCCCUCGAGGUGCUGCGUGAAGAGGCGAUGAAGUCAACAGAGGAUUGAGCAUCA
B15: chr7:72892646:72892647:-_ENSG00000009954_ENST00000339594|hu_mus|FALSE|FALSE (ssRNA)
RNA: GGGAGUUCUACAGUCCGACGAUCUUUGUCACUGUGCUUCCCUGGCUUCUUGGCGGCUGGGCCUUUCUUAGGAAUGUGGAAGCUGUGUAGCUUGUUGUUGUUGGGGGACAUAAUUUUCAUCACCCCUUCCAAAUGUUCUUCCGGCAACAGAGGAUUGAGCAUCA
B16: chr5:29673426:29673427:-_ENSMUSG00000010721_ENSMUST00000055195|mus_mus|motif|central (ssRNA)
RNA: GGGAGUUCUACAGUCCGACGAUCAUUGCUGAUGAUUGAGAAGGGUAAAAGCAAAACCGCGCCAGCUGACACGGCGGGAGUGAAGGUGCUCAGAAACAACGAUAUCCUGUUGACUACAGCAUCCUCAUCUUCUUGUUCAUCGGACAACAGAGGAUUGAGCAUCA
B17: chr7:141438946:141438947:+_ENSG00000106028_ENST00000265304|hu_mus|hu_hu_hu_mus_True|1_1 (ssRNA)
RNA: GGGAGUUCUACAGUCCGACGAUCGACGAAAUACCUGUAACACAGGUCUUCGAAACAUGGCUUCUGUUUUUCUUACAACCUAAUCUUUAGGCUUUUCCUAAAGGAAAGAAAGAAAAGAGAAAAAUGAUAAAUCAAGAACUUCCGCAACAGAGGAUUGAGCAUCA
B18: chr7:54823571:54823572:-_ENSG00000132432_ENST00000352861|hu_mus|hu_hu_hu_mus_False|8_58 (ssRNA)
RNA: GGGAGUUCUACAGUCCGACGAUCUCCCAUGAUAGCAAAUCCUAUAGCUGUAGCCAUGGCAAUCUUCUGGAAUUCUUUUCUAUCAGGUUUGGUGCAUCUUUUAACCAGCCGAAUUGAGUCCUUUACAAACUGCCGACUGGGCUCCAACAGAGGAUUGAGCAUCA
B19: chr1:63100574:63100575:-_ENSG00000116641_ENST00000251157|hu_hu|FALSE|FALSE (ssRNA)
RNA: GGGAGUUCUACAGUCCGACGAUCAGCAGGUGGUACAUGUGGACGUAACAACCCUUUCAUCUGCUCAGAAUUAAGGUCAAAAUAAAAGUUUUCUGAAAUCUUUUUCUUUUCCUUGACAUCAUAUAAAGCCAAACUUGCAAAAAUCAACAGAGGAUUGAGCAUCA
B20: chr3:69361433:69361434:+_ENSMUSG00000027784_ENSMUST00000029355|mus_mus|motif|central (ssRNA)
RNA: GGGAGUUCUACAGUCCGACGAUCCACCCAUAGAUCUAUCUGGGCUACUUGUUACAGCUGCCCAUCUCUUCCCCCUCCCCGGAAAAAAAGCCACAGACAAACAAACUGACAAGGCAGAGGAUAACGUCUAGGGAAAUAUGGCCACAACAGAGGAUUGAGCAUCA
B21: chr15:51674161:51674162:-_ENSMUSG00000022312_ENSMUST00000022925|mus_hu|FALSE|FALSE (ssRNA)
RNA: GGGAGUUCUACAGUCCGACGAUCUUGAACAACUUCAGUUCCUUGUCCUUCUUCUUGAUAAUGUUUGAUUAUCUUUAAUACCACAAGGCCAUCUAUCUGCACUUGCUUCACGGCUGAAUCUCCCGAGCCGCCUUUGCCUUUGCCCAACAGAGGAUUGAGCAUCA
B22: chr11:77376804:77376805:-_ENSG00000048649_ENST00000308488|hu_hu|motif|central (ssRNA)
RNA: GGGAGUUCUACAGUCCGACGAUCAAUGAAUUUUAAUAGAAGUCUAAUGGCCAAAGGCCAAAACUACAUUCAAACUCUGCGGAUAUAUCCAGGCAGAUAGGAAAUUCCAACACACACACACACGCACACGCACACACACAAACACAACAGAGGAUUGAGCAUCA

This is one part of the list.

In this experiment the target is T1, UNK ZnF1-3 (human, UniProt Q9C0B0 31-174).
T1 sequence: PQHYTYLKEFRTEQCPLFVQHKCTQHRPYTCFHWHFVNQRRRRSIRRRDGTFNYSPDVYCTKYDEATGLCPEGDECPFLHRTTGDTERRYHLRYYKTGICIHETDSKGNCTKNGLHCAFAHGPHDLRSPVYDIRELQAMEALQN
Nature of the experiment: nsRBNS (natural sequence RNA bind-n-seq); RBNS binding buffer (assumed for nsRBNS): 25 mM Tris pH 7.5, 150 mM KCl, 3 mM MgCl2, 0.01% Triton X-100, 500 ug/ml BSA, 20 U/ml SUPERase-In, 4 C; UNK is unkempt and MSI1 is Musashi-1; names of the RNAs are library labels; protein concentration not given here; high values mean tight binding.
The molecule B1 had a binding signal of 1.01 enrichment R. In the case of B2, the binding signal is 0.772 enrichment R. The molecule B3 had a binding signal of 1.2 enrichment R.

B4: the binding signal was found to be 0.579 enrichment R. The value for B5 was 0.954 enrichment R.

The molecule B6 showed a binding signal of 0.875 enrichment R. B7 registered a binding signal of 0.462 enrichment R. Turning to B8, the binding signal worked out at 0.614 enrichment R. B9 displayed a binding signal of 0.911 enrichment R. Next, B10: 0.83 enrichment R; B11: 0.504 enrichment R; B12: 0.628 enrichment R. The molecule B13 registered a binding signal of 1.6 enrichment R.

In turn, B14 yielded a binding signal of 1.13 enrichment R. B15 displayed a binding signal of 0.518 enrichment R. As to B16, the binding signal is 0.903 enrichment R. Turning to B17, the binding signal is 0.706 enrichment R. With B18, the binding signal was found to be 0.907 enrichment R. In the case of B19, the binding signal is 0.903 enrichment R. B20 displayed a binding signal of 1.86 enrichment R. B21: the binding signal worked out at 0.391 enrichment R. B22 returned a binding signal of 1.78 enrichment R.

The values above are taken from article PMC12136788.
